The target in assay [1] is T1, NOV001.
T1 construct: also called IgG1 LALA version of NOV003
Description: solution equilibrium titration (SET): NOV001 held at 10 pM, human β-klotho (KLB) titrated in solution; the concentration is that of KLB.

Assay [2] concerns the target T2, NOV004.
T2 construct: also called IgG1 DAPA version of NOV002
The assay is described as follows: solution equilibrium titration (SET): NOV004 held at 10 pM, human β-klotho (KLB) titrated in solution; the concentration is that of KLB.

In assay [3] the target is T3, NOV002.
T3 construct: also called IgG1 LALA version of NOV004
Description: solution equilibrium titration (SET): NOV002 held at 10 pM, human β-klotho (KLB) titrated in solution; the concentration is that of KLB.

T3 sequence (heavy, as listed by the source, chain 1 of 2): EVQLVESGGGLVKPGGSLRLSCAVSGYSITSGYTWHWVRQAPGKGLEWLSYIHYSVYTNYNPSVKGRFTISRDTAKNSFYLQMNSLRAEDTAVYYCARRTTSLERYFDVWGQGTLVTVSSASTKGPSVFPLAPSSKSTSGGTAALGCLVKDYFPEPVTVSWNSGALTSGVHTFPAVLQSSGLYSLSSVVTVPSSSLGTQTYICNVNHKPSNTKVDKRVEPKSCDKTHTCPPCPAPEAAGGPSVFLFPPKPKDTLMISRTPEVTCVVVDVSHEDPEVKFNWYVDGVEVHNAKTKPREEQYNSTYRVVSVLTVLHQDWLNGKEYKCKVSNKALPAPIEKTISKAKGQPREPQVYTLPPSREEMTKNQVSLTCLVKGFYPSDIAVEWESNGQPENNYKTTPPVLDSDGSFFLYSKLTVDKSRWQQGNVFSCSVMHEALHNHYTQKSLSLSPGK
T3 sequence (light, as listed by the source, chain 2 of 2): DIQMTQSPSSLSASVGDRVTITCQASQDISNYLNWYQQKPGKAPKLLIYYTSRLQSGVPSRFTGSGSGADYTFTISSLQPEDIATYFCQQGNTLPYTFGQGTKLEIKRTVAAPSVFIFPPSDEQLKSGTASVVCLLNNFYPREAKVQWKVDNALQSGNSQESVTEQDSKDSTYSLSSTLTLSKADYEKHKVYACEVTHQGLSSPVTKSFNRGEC
T2 sequence (heavy, as listed by the source, chain 1 of 2): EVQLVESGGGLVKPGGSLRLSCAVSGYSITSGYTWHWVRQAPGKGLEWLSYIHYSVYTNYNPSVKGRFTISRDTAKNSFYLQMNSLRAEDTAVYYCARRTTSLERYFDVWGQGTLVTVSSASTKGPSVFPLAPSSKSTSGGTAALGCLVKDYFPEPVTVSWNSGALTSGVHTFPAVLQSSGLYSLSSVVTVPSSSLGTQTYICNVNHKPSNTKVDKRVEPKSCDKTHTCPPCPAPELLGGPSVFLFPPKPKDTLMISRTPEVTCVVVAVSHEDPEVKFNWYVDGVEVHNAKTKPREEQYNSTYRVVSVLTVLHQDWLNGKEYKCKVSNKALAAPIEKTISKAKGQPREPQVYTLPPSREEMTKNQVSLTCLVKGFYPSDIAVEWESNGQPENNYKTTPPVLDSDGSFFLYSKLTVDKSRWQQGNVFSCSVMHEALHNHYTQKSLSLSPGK
T2 sequence (light, as listed by the source, chain 2 of 2): as the sequence (light, as listed by the source, chain 2 of 2) above
T1 sequence (VH, as listed by the source, chain 1 of 2): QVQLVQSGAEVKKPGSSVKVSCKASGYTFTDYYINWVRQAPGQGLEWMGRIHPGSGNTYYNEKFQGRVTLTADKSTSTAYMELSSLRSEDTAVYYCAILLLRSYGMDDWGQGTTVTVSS
T1 sequence (VL, as listed by the source, chain 2 of 2): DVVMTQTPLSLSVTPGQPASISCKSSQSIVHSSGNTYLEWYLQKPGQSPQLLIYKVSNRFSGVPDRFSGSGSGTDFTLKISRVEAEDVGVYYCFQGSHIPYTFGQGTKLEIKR

B1: human β-klotho (receptor)
chain: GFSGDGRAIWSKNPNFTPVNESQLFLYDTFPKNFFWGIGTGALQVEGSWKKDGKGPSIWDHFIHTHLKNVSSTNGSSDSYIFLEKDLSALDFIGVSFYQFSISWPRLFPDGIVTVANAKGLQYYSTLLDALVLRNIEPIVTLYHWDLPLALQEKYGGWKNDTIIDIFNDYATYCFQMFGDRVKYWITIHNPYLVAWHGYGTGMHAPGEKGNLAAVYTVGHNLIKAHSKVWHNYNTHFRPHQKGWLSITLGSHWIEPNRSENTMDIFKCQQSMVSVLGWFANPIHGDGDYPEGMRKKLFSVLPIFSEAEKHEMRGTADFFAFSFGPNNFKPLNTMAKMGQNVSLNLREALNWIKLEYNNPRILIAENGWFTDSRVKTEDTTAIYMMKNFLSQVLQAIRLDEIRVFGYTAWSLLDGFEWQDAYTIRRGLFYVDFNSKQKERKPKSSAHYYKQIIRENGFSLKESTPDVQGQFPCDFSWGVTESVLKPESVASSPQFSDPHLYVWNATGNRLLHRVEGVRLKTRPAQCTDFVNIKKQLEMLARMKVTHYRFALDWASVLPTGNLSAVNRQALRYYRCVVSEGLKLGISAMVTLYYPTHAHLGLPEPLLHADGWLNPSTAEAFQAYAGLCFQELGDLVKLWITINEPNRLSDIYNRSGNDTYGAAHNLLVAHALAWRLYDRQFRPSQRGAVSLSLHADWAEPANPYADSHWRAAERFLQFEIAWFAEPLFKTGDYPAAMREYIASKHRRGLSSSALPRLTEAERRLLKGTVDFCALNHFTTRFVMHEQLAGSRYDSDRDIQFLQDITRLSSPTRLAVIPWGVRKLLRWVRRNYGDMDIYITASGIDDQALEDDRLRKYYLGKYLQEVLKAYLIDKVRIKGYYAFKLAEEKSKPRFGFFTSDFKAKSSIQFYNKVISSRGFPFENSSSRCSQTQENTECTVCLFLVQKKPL
notes: Antigen of the SET assay; also called beta-klotho
B1: the “IC50 (read off the curve)” value in assay [1] is about 0.08 nM; in assay [2] it was about 0.03 nM; in assay [3], about 0.03 nM.

The values above are taken from US20200087392A1 (Novartis, published 2020).
